{"source": "the supplement of paper PMC10338343", "note": "± gives the standard deviation. Whole data set: some 6,600 sequences, median “pre-steady-state target cleavage rate” near 0.07, cut for the highest 2% near 0.72. The list shows a part of the results, in another mix than the full data.", "data": [{"system": "MIWI (PIWIL1) piRISC loaded with Kctd7 piRNA (30 nt)", "assay": "pre-steady-state target cleavage rate (min^-1); MIWI and MILI are mouse PIWI proteins and EfPiwi is from a freshwater sponge; tags in brackets are library labels; higher = faster piRNA-guided slicing of the target", "settings": "guide: Kctd7 piRNA 5'p-UGUUAAUCUCUCAGAGAAGGUGACAGUGAU; auxiliary factor: 500 nM mouse GTSF1", "method_in_brief": "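Active affinity-purified piRISC (1 nM) loaded with one synthetic guide was mixed with a transcribed, DNA-blocked target RNA library (0.1 nM), with or without 500 nM GTSF1 partner protein, in HEPES–potassium acetate buffer at 33 °C for 0–8 or 0–960 min. Uncleaved targets were sequenced, normalised to depth and to weakly complementary targets, and pooled across three trials, with k3 capped at 0.0001 min^-1. The pre-steady-state cleavage rate was determined with a burst-and-steady-state fit.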", "values": [{"sequence": "UAGUGACUCACCUUCUCAGAGAGAUUAACA", "pre-steady-state target cleavage rate": "0.116 ± 0.013"}, {"sequence": "UAGUGACAGUGGAAGAGACUGAGAAUUACA", "pre-steady-state target cleavage rate": "< 0.0001"}, {"sequence": "UAGUGUGUCACCUUCUCUGUGAGAUUAUGA", "pre-steady-state target cleavage rate": "0.0244 ± 0.0083"}, {"sequence": "UAGUGAGUCACCUUCUCUGAGAGAUUGAACA", "pre-steady-state target cleavage rate": "0.178 ± 0.018"}, {"sequence": "UACACUGUCACCUUCUCUGAGAGUUUUACA", "pre-steady-state target cleavage rate": "0.0952 ± 0.024"}, {"sequence": "AUCACUGUCACCUUGUCUGAGAGAUAUUGA", "pre-steady-state target cleavage rate": "0.42 ± 0.12"}, {"sequence": "UAGUGUGUCACCUUCUCUGACAGAUUAACA", "pre-steady-state target cleavage rate": "0.474 ± 0.036"}, {"sequence": "AUCACUGUCAGCCUUCUCUGAGAGAUUAACA", "pre-steady-state target cleavage rate": "0.251 ± 0.019"}, {"sequence": "UUCUCUGUCACCUUCUCUGACAGAUUAACA", "pre-steady-state target cleavage rate": "0.254 ± 0.021"}, {"sequence": "UAGUCUGUCACCUUCUCUGAGAGUUUAAGA", "pre-steady-state target cleavage rate": "0.177 ± 0.044"}, {"sequence": "UAGUGAGACACCUUCUCUGAGUGAUUAACA", "pre-steady-state target cleavage rate": "0.0186 ± 0.0032"}, {"sequence": "AUCACCGUCACCUUCUCUGAGAGAUUAACA", "pre-steady-state target cleavage rate": "0.67 ± 0.026"}, {"sequence": "UAGUGACAGACCAUCUCUGAGAGAUAAACA", "pre-steady-state target cleavage rate": "0.0072 ± 0.0016"}, {"sequence": "UAGUGUGUCACCUUCAGUGAGAGAUUAUGA", "pre-steady-state target cleavage rate": "0.00476 ± 0.0034"}, {"sequence": "UAGACUGUCUCCUUCUCUGAGAGAUUUUGA", "pre-steady-state target cleavage rate": "0.00511 ± 0.0036"}, {"sequence": "UAGUGUGUCACCUUCUGAGAGAGAUUAAGA", "pre-steady-state target cleavage rate": "0.0352 ± 0.013"}, {"sequence": "UAGUGAGUGUGCUUCUCUGAGAGAUUAAGA", "pre-steady-state target cleavage rate": "0.0188 ± 0.0046"}, {"sequence": "UACACUGUGUCCUUCUCUGAGAGAUUUUGA", "pre-steady-state target cleavage rate": "0.0136 ± 0.0047"}, {"sequence": "UAGUGUGUCACCUUCUUUGAGAGAUUAACA", "pre-steady-state target cleavage rate": "0.435 ± 0.025"}, {"sequence": "UAGUGACACACCUUCUCUGAGUGAUAAACA", "pre-steady-state target cleavage rate": "0.0152 ± 0.0044"}, {"sequence": "AUCACUGUCACCAUCUCUGUGAGAUUAACA", "pre-steady-state target cleavage rate": "0.259 ± 0.021"}, {"sequence": "UAGUGACACUGCUUCUCUGAGAGAUUAACA", "pre-steady-state target cleavage rate": "0.153 ± 0.016"}, {"sequence": "UAGUGACAGUGCUUUCUCUGAGAGAUUAACA", "pre-steady-state target cleavage rate": "0.354 ± 0.033"}, {"sequence": "UAGUCUGUCUCCUUCUCUGAGAGAUUAAGA", "pre-steady-state target cleavage rate": "0.0826 ± 0.015"}, {"sequence": "UAGUGACACACCUUCUCUGAGUGAAUAACA", "pre-steady-state target cleavage rate": "0.00377 ± 0.0036"}, {"sequence": "AUCACUGUCACCUUCUCUCAGAGAUUUUGA", "pre-steady-state target cleavage rate": "0.0207 ± 0.0088"}, {"sequence": "UAGUCUGUCACCUUCUCUGCGAGAUUAACA", "pre-steady-state target cleavage rate": "0.385 ± 0.03"}, {"sequence": "UAGUGAGUCUCCUUGUCUGAGAGAUUAACA", "pre-steady-state target cleavage rate": "0.0618 ± 0.009"}, {"sequence": "UAGUGACACACCAUCUCUGAGAGAUUUACA", "pre-steady-state target cleavage rate": "0.0811 ± 0.012"}, {"sequence": "AUCACACACACCUUCUCUGAGAGAUUAACA", "pre-steady-state target cleavage rate": "0.563 ± 0.032"}, {"sequence": "UAGUCUGUCACCUUCACUGAGAGAUUAACA", "pre-steady-state target cleavage rate": "0.39 ± 0.02"}, {"sequence": "UAGUGAGUGACCUUCUCUGAGAGAUUAACA", "pre-steady-state target cleavage rate": "0.504 ± 0.035"}, {"sequence": "UAGUGUGUCAGCUUCUCUGAGAGAUUAUCA", "pre-steady-state target cleavage rate": "0.244 ± 0.029"}, {"sequence": "AUCACUGUCACCUUCUCUGAGAGAUUAUACA", "pre-steady-state target cleavage rate": "0.309 ± 0.041"}, {"sequence": "UAGUGACUCACCUUCUCUGUGAGAUUAUCA", "pre-steady-state target cleavage rate": "0.0112 ± 0.0057"}, {"sequence": "UUGUCUGUCACCUUCUCUGAGAGAUUAAGA", "pre-steady-state target cleavage rate": "0.0827 ± 0.014"}, {"sequence": "UUCACUGACACCUUCUCUGAGAGAUUAAGA", "pre-steady-state target cleavage rate": "0.162 ± 0.035"}, {"sequence": "UAGUGACUCACCAUCUCAGAGAGAUUAACA", "pre-steady-state target cleavage rate": "0.0215 ± 0.0043"}, {"sequence": "UAGUCUGUGACCUUCUCAGAGAGAUUAACA", "pre-steady-state target cleavage rate": "0.239 ± 0.016"}, {"sequence": "AUCACUGUCACCUUCUCUGUGAGAUUUACA", "pre-steady-state target cleavage rate": "0.235 ± 0.029"}, {"sequence": "UAGAGUGUCACCUUCUCUGAGAGAUAUUGA", "pre-steady-state target cleavage rate": "0.0679 ± 0.016"}, {"sequence": "UAGUGACUCACCUUCUGUGAGAGAUAAACA", "pre-steady-state target cleavage rate": "0.124 ± 0.016"}, {"sequence": "UAGUCUGUCACCUUCUCUCAGAGAUUAAGA", "pre-steady-state target cleavage rate": "0.0365 ± 0.01"}, {"sequence": "UAGUGUGUCACCUUCUCUGAGAGAUUAAACA", "pre-steady-state target cleavage rate": "0.379 ± 0.043"}, {"sequence": "UAGUGUGUCACCUAGACUGAGAGAUUAACA", "pre-steady-state target cleavage rate": "0.0111 ± 0.0031"}, {"sequence": "AUCACUGUCACCUUCUCUCAGAGAUAUUGA", "pre-steady-state target cleavage rate": "0.00736 ± 0.0043"}, {"sequence": "UAGUCUGUCUCCUUGUCUGAGAGAUUAACA", "pre-steady-state target cleavage rate": "0.173 ± 0.024"}, {"sequence": "UAGUGACACACCUUCUCUGAGAGAUUAUCA", "pre-steady-state target cleavage rate": "0.265 ± 0.047"}, {"sequence": "UUCACUGUCACCUUCUCUUGAGAGAUUAACA", "pre-steady-state target cleavage rate": "0.129 ± 0.043"}, {"sequence": "UACACUGUCACCUUCCCUGAGAGAUUAACA", "pre-steady-state target cleavage rate": "0.292 ± 0.042"}, {"sequence": "UAGUGAGUCACCUUCUCUGAGAGAUUGACA", "pre-steady-state target cleavage rate": "0.316 ± 0.045"}, {"sequence": "UAGUGACUGACCUUCACUGAGAGAUUAACA", "pre-steady-state target cleavage rate": "0.237 ± 0.035"}, {"sequence": "AUCACAGUCACCUUCUCUGAGACAUUAACA", "pre-steady-state target cleavage rate": "0.225 ± 0.017"}, {"sequence": "UAGUCUGUCACCAUCUCUGACAGAUUAACA", "pre-steady-state target cleavage rate": "0.0239 ± 0.0062"}, {"sequence": "UAGUGAGUCACCUUCUCUCAGUGAUUAACA", "pre-steady-state target cleavage rate": "0.00654 ± 0.0044"}, {"sequence": "UAGUGACUCACCUUCUCUGAGAGCUUAACA", "pre-steady-state target cleavage rate": "0.361 ± 0.048"}, {"sequence": "AUCACUCUCACCUUCUCUGAGAGAUUAUCA", "pre-steady-state target cleavage rate": "0.106 ± 0.021"}, {"sequence": "UAGUCUGUCACCUUCUCUGAGUCAUUAACA", "pre-steady-state target cleavage rate": "0.00996 ± 0.0019"}, {"sequence": "AUCACUGUCAGCUUCUCUGAGACAUUAACA", "pre-steady-state target cleavage rate": "0.0098 ± 0.0024"}, {"sequence": "UAGUCUGUCUCCUUCUCUGAGAGAUAUUGA", "pre-steady-state target cleavage rate": "0.00473 ± 0.0035"}, {"sequence": "AUCACUGUCACCUUGUCUGAGAGAUUAUGA", "pre-steady-state target cleavage rate": "0.393 ± 0.089"}, {"sequence": "UAGUGACAGACCUUGUCUGAGAGAUAAACA", "pre-steady-state target cleavage rate": "0.0136 ± 0.0037"}, {"sequence": "UAGUCUGUCACCUUCUCUGAGAGAUUAAUA", "pre-steady-state target cleavage rate": "0.23 ± 0.031"}, {"sequence": "AUCACUGUCACGAUCUCUGAGAGAUUAAGA", "pre-steady-state target cleavage rate": "0.0977 ± 0.015"}, {"sequence": "UAGACUGUCACCUUCUCUAAGAGAUUAACA", "pre-steady-state target cleavage rate": "0.372 ± 0.023"}, {"sequence": "UAGACUGUCACCUUCUCAGACAGAUUAACA", "pre-steady-state target cleavage rate": "0.0916 ± 0.0075"}, {"sequence": "UAGUGACUCAGCUUCUCUGACAGAUUAACA", "pre-steady-state target cleavage rate": "0.0276 ± 0.0052"}, {"sequence": "UAGUGUGUCACCUUUUCUGAGAGAUUAACA", "pre-steady-state target cleavage rate": "0.598 ± 0.046"}, {"sequence": "UAGUGUGUCACCUUCUCAGAGAGAUUAUCA", "pre-steady-state target cleavage rate": "0.158 ± 0.025"}, {"sequence": "UAGUGUGUCACCUUCUCUGAGGGAUUAACA", "pre-steady-state target cleavage rate": "0.348 ± 0.023"}, {"sequence": "UAGUCUGUCACCUUCUCUCUGAGAUUAAGA", "pre-steady-state target cleavage rate": "0.00594 ± 0.0036"}, {"sequence": "UUCACUGUCACCUUCUCUGAGAGAUUAGACA", "pre-steady-state target cleavage rate": "0.229 ± 0.038"}]}]}
